Source: a collection of fitness landscapes (doi:10.1126/science.1257360)
The list shows a part of the results.

B1: PhoQ; a variant is named by its letters at X, in order, P23837 (parent)
chain: MKKLLRLFFPLSLRVRFLLATAAVVLVLSLAYGMVALIGYSVSFDKTTFRLLRGESNLFYTLAKWENNKLHVELPENIDKQSPTMTLIYDENGQLLWAQRDVPWLMKMIQPDWLKSNGFHEIEADVNDTSLLLSGDHSIQQQLQEVREDDDDAEMTHSVAVNVYPATSRMPKLTIVVVDTIPVELKSSYMVWSWFIYVLSANLLLVIPLLWVAAWWSLRPIEALAKEVRELEEHNRELLNPATTRELTSLVRNLNRLLKSERERYDKYRTTLTDLTHSLKTPLXXLQXXLRSLRSEKMSVSDAEPVMLEQISRISQQIGYYLHRASMRGGTLLSRELHPVAPLLDNLTSALNKVYQRKGVNISLDISPEISFVGEQNDFVEVMGNVLDNACKYCLEFVEISARQTDEHLYIVVEDDGPGIPLSKREVIFDRGQRVDTLRPGQGVGLAVAREITEQYEGKIVAGESMLGGARMEVIFGRQHSAPKDE

Variants of: B1
Experiment: enrichment ratio after two sorts for PhoP signalling (ratio (wild type AVST 3.29)); higher = more functional
Conditions: with PhoP (E. coli)

Which enrichment ratio does the source give for DHLR here?
The enrichment ratio was ≤ 0.25.

Which enrichment ratio does the source give for VLWC here?
The enrichment ratio was ≤ 0.25.

With AKKD as the variant, how does the enrichment ratio read?
Its enrichment ratio is ≤ 0.25.

VKCI was tested. Which enrichment ratio did it give?
Its enrichment ratio is ≤ 0.25.

Which enrichment ratio does the source give for ASRL here?
The enrichment ratio was ≤ 0.25.

How did the enrichment ratio turn out when DARQ was run?
Its enrichment ratio is ≤ 0.25.

With HREG as the variant, how does the enrichment ratio read?
Its enrichment ratio is ≤ 0.25.

CNLL was tested. Which enrichment ratio did it give?
The enrichment ratio was 0.444.

Which enrichment ratio does the source give for ITVF here?
The enrichment ratio was ≤ 0.25.

Which enrichment ratio does the source give for RIMK here?
The enrichment ratio was ≤ 0.25.

For MYSC, which enrichment ratio is on record?
Its enrichment ratio is ≤ 0.25.

How did the enrichment ratio turn out when LHVH was run?
The enrichment ratio was ≤ 0.25.

With NRAP as the variant, how does the enrichment ratio read?
Its enrichment ratio is ≤ 0.25.

Which enrichment ratio does the source give for NNKG here?
Its enrichment ratio is ≤ 0.25.

For RFHK, which enrichment ratio is on record?
The enrichment ratio was ≤ 0.25.

For EADT, which enrichment ratio is on record?
The enrichment ratio was ≤ 0.25.

How did the enrichment ratio turn out when DSIH was run?
Its enrichment ratio is ≤ 0.25.

With WQSE as the variant, how does the enrichment ratio read?
Its enrichment ratio is ≤ 0.25.

With TPTY as the variant, how does the enrichment ratio read?
Its enrichment ratio is ≤ 0.25.

With MSFI as the variant, how does the enrichment ratio read?
Its enrichment ratio is 9.29.

VWMY was tested. Which enrichment ratio did it give?
Its enrichment ratio is ≤ 0.25.

Which enrichment ratio does the source give for MFDY here?
Its enrichment ratio is ≤ 0.25.

Which enrichment ratio does the source give for WLAM here?
Its enrichment ratio is ≤ 0.25.

For INSS, which enrichment ratio is on record?
Its enrichment ratio is ≤ 0.25.

For FMPD, which enrichment ratio is on record?
Its enrichment ratio is ≤ 0.25.

With YWAY as the variant, how does the enrichment ratio read?
The enrichment ratio was ≤ 0.25.

With GSLP as the variant, how does the enrichment ratio read?
Its enrichment ratio is ≤ 0.25.

PSPH was tested. Which enrichment ratio did it give?
Its enrichment ratio is ≤ 0.25.

With SFGM as the variant, how does the enrichment ratio read?
Its enrichment ratio is ≤ 0.25.

FQDL was tested. Which enrichment ratio did it give?
The enrichment ratio was 0.265.

How did the enrichment ratio turn out when SYMN was run?
The enrichment ratio was ≤ 0.25.

How did the enrichment ratio turn out when TGWQ was run?
Its enrichment ratio is 22.6.

Which enrichment ratio does the source give for PIFN here?
Its enrichment ratio is ≤ 0.25.

SNFT was tested. Which enrichment ratio did it give?
The enrichment ratio was ≤ 0.25.

IYNV was tested. Which enrichment ratio did it give?
Its enrichment ratio is ≤ 0.25.

Which enrichment ratio does the source give for WMAG here?
Its enrichment ratio is ≤ 0.25.

LYKA was tested. Which enrichment ratio did it give?
The enrichment ratio was ≤ 0.25.

NNQF was tested. Which enrichment ratio did it give?
The enrichment ratio was ≤ 0.25.

Which enrichment ratio does the source give for THCS here?
Its enrichment ratio is 9.03.

How did the enrichment ratio turn out when TFNY was run?
The enrichment ratio was ≤ 0.25.

With GESM as the variant, how does the enrichment ratio read?
The enrichment ratio was 17.3.

For TTNI, which enrichment ratio is on record?
Its enrichment ratio is 8.99.

VELN was tested. Which enrichment ratio did it give?
The enrichment ratio was 2.26.

With YIMH as the variant, how does the enrichment ratio read?
The enrichment ratio was ≤ 0.25.

HAQP was tested. Which enrichment ratio did it give?
The enrichment ratio was ≤ 0.25.

How did the enrichment ratio turn out when GTTA was run?
The enrichment ratio was ≤ 0.25.

Which enrichment ratio does the source give for WSEF here?
Its enrichment ratio is ≤ 0.25.

How did the enrichment ratio turn out when QWNL was run?
The enrichment ratio was ≤ 0.25.

Which enrichment ratio does the source give for DLKP here?
The enrichment ratio was ≤ 0.25.

With DLLC as the variant, how does the enrichment ratio read?
The enrichment ratio was ≤ 0.25.

How did the enrichment ratio turn out when HQVL was run?
Its enrichment ratio is ≤ 0.25.

For RKLQ, which enrichment ratio is on record?
Its enrichment ratio is ≤ 0.25.

With HGSA as the variant, how does the enrichment ratio read?
The enrichment ratio was ≤ 0.25.

Which enrichment ratio does the source give for AHKN here?
The enrichment ratio was ≤ 0.25.

How did the enrichment ratio turn out when LKSC was run?
Its enrichment ratio is ≤ 0.25.

Which enrichment ratio does the source give for HGMN here?
The enrichment ratio was ≤ 0.25.

Which enrichment ratio does the source give for WKSP here?
Its enrichment ratio is ≤ 0.25.

With GHYQ as the variant, how does the enrichment ratio read?
Its enrichment ratio is ≤ 0.25.

For SMHN, which enrichment ratio is on record?
The enrichment ratio was ≤ 0.25.

With QNMH as the variant, how does the enrichment ratio read?
Its enrichment ratio is ≤ 0.25.

With TFNE as the variant, how does the enrichment ratio read?
Its enrichment ratio is ≤ 0.25.

For VIMA, which enrichment ratio is on record?
Its enrichment ratio is ≤ 0.25.

Which enrichment ratio does the source give for LRNL here?
The enrichment ratio was ≤ 0.25.

With VQQH as the variant, how does the enrichment ratio read?
Its enrichment ratio is ≤ 0.25.

With KETQ as the variant, how does the enrichment ratio read?
The enrichment ratio was ≤ 0.25.

PVMN was tested. Which enrichment ratio did it give?
Its enrichment ratio is ≤ 0.25.

Which enrichment ratio does the source give for EIGT here?
The enrichment ratio was ≤ 0.25.

Which enrichment ratio does the source give for DDES here?
Its enrichment ratio is ≤ 0.25.

How did the enrichment ratio turn out when HNSC was run?
The enrichment ratio was ≤ 0.25.

For RKYT, which enrichment ratio is on record?
The enrichment ratio was ≤ 0.25.

Which enrichment ratio does the source give for TYST here?
Its enrichment ratio is 2.83.

Which enrichment ratio does the source give for MVLQ here?
The enrichment ratio was 7.13.

For KCVS, which enrichment ratio is on record?
The enrichment ratio was ≤ 0.25.

AISI was tested. Which enrichment ratio did it give?
Its enrichment ratio is 22.

How did the enrichment ratio turn out when PYWI was run?
Its enrichment ratio is 5.43.

With NSFN as the variant, how does the enrichment ratio read?
The enrichment ratio was ≤ 0.25.

For SDKF, which enrichment ratio is on record?
Its enrichment ratio is ≤ 0.25.

Which enrichment ratio does the source give for KFSY here?
The enrichment ratio was ≤ 0.25.

How did the enrichment ratio turn out when FMAI was run?
Its enrichment ratio is ≤ 0.25.

For PSPK, which enrichment ratio is on record?
Its enrichment ratio is ≤ 0.25.

How did the enrichment ratio turn out when GTPI was run?
The enrichment ratio was ≤ 0.25.

GWDL was tested. Which enrichment ratio did it give?
The enrichment ratio was ≤ 0.25.

How did the enrichment ratio turn out when PQWC was run?
Its enrichment ratio is ≤ 0.25.

With IWNK as the variant, how does the enrichment ratio read?
The enrichment ratio was ≤ 0.25.

With LAPT as the variant, how does the enrichment ratio read?
Its enrichment ratio is ≤ 0.25.

For KLRI, which enrichment ratio is on record?
The enrichment ratio was ≤ 0.25.

With LAGF as the variant, how does the enrichment ratio read?
The enrichment ratio was ≤ 0.25.

Which enrichment ratio does the source give for RSYF here?
The enrichment ratio was ≤ 0.25.

DLIW was tested. Which enrichment ratio did it give?
The enrichment ratio was ≤ 0.25.

For DDHN, which enrichment ratio is on record?
The enrichment ratio was ≤ 0.25.

With IIIW as the variant, how does the enrichment ratio read?
The enrichment ratio was ≤ 0.25.

With MYTY as the variant, how does the enrichment ratio read?
The enrichment ratio was ≤ 0.25.

For SGGA, which enrichment ratio is on record?
The enrichment ratio was 8.12.

MWWT was tested. Which enrichment ratio did it give?
The enrichment ratio was ≤ 0.25.

For NCSA, which enrichment ratio is on record?
The enrichment ratio was ≤ 0.25.

PFTM was tested. Which enrichment ratio did it give?
Its enrichment ratio is ≤ 0.25.

For PPCA, which enrichment ratio is on record?
The enrichment ratio was ≤ 0.25.

With YFHY as the variant, how does the enrichment ratio read?
Its enrichment ratio is ≤ 0.25.
